In PubChem BioAssay AID1645887 (National Center for Advancing Translational Sciences (NCATS), 2021):
Values joined by “and” are separate entries in the source; they are usually repeats but may differ in a detail not shown here. Equal entries are not always repeated. Among all 16,000 compounds or so, about 40 (0.2%) were called active. About 1% were inconclusive and are not listed. Calls follow the shape of the dose curve; as a rule, active = well fitted activation curve with a large enough effect; inconclusive = small, poorly fitted or top-dose-only effect, or another doubt; inactive = no such curve, though single readings can be large or run the other way. Some of the results follow.

The compounds below were run against Rap guanine nucleotide exchange factor 4 (Homo sapiens) (UniProt Q8WZA2) (assay: Validation qHTS for agonist of cAMP-regulated guanine nucleotide exchange factor 4 (EPAC2)). Settings: EPAC2 Rap1B BODIPY-GDP exchange, fluorescence; activation: stronger effect = higher value.
In short: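 Signal normalized against 6.5 mM cAMP as agonist control. Mix of EPAC2 (100 nM), RAP1B-BODIPY-GDP (250 nM) and GDP (50 uM) was read kinetically at 480/540 nm, every 5 min over 30 min, after 5 min room-temperature incubation with compound.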
% is scaled to controls: 0 for no effect and ±100 for the full control effect.
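Also: exchange makes BODIPY-GDP fluorescence drop when released from Rap1B; series mostly up to about 150 µM.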

Sequence of UniProt Q8WZA2 (Q8WZA2 whole entry, looked up): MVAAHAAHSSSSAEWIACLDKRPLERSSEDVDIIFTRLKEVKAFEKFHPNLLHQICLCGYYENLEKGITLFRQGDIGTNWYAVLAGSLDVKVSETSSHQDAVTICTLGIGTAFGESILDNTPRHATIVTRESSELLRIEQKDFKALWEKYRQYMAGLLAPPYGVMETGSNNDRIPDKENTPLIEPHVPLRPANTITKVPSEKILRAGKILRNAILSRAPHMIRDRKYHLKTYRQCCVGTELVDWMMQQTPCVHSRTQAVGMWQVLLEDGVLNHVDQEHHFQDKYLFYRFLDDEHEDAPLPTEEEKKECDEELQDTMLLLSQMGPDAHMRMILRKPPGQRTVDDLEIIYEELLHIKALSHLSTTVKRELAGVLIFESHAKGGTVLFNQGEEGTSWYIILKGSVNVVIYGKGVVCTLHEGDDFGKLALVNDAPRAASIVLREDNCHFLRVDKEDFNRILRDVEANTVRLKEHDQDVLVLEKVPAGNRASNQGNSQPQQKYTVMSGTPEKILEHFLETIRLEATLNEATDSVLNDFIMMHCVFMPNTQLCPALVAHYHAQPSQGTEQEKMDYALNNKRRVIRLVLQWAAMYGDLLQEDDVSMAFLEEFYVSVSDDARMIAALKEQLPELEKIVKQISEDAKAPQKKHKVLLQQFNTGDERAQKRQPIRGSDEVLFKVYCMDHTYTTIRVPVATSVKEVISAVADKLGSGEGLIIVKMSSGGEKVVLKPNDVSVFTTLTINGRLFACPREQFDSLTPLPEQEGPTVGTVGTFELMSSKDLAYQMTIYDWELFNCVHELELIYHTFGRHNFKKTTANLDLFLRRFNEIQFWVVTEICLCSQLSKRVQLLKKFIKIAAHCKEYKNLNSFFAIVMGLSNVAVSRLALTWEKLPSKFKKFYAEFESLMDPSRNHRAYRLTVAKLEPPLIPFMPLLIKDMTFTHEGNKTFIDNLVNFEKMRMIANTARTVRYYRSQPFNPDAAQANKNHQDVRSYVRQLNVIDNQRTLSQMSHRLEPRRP

activation, inactive:
COc1cc(OC)c2ccc(=O)oc2c1 1.61%
CCN(CC)C(=O)Nc1ccc(OCC(O)CNC(C)(C)C)c(C(C)=O)c1 (centres undefined) -21.6%
CCNc1ncc2nc(-c3ccc(F)cc3)c(=O)n(C[C@H]3CCCO3)c2n1 -10.6%
CN(C)c1ccc(-c2nc(NCCc3cnc[nH]3)c3ccccc3n2)cc1 -13.4%
O=C(Nc1ccccc1)N1CCC2(CC1)CCN(C(=O)c1ccncc1)CC2 -18.7%
CC(Oc1ccccc1)C(=O)NC1C(=O)N2C(C(=O)O)C(C)(C)S[C@@H]12 (some centres undefined) -21.3%
CN(C)c1ccc(-c2ccc3ncnc(NC4CC4)c3c2)cc1 -15%
COc1ccc(-n2c(CCNC(=O)c3ccccc3C(F)(F)F)nnc2SC)cc1 -4.98%
COc1ccccc1CNc1ncncc1-c1ccoc1 -16.4%
Cc1cnc(CNc2ccnc(-c3c(C)noc3C)n2)cn1 -29.7%
O=C(NCCN1CCOCC1)c1cnn(-c2nccc(-c3cccs3)n2)c1C1CC1 -14.5%
O=c1c(O)c(-c2ccc(O)cc2)oc2cc(O)cc(O)c12 -47.6% and -11.5%
CCC(=O)N[C@@H]1c2ccccc2C2(CCN(Cc3cnc(N(C)C)s3)CC2)[C@H]1OC -4.89%
CC(=O)Nc1ccc(OC(=O)c2ccccc2O)cc1 13.5%
COc1cc2nc(N3CCN(C(=O)C4COc5ccccc5O4)CC3)nc(N)c2cc1OC (centres undefined) 0.366% and -47.8%
O=P(O)(O)C(O)(Cn1ccnc1)P(=O)(O)O -2.86%
CC(C)CN1CCCC2(CCN(C(=O)c3cccn3C)CC2)C1 -15.2%
O=C(c1cc(O)c(O)c([N+](=O)[O-])c1)c1ccccc1F -12%
O=c1nc2ccccc2c2n1CC(CN1CCN(c3ccccc3)CC1)N2 (centres undefined) 0.311%
O=c1c(-c2ccccc2)nc2cncnc2n1Cc1ccccc1 -12.4%
O=c1[nH]ccc2c(O)cccc12 -23.1%
CC(C)(CO)[C@@H](O)C(=O)NCCC(=O)O 14.6%
COc1cccc(CN2CCc3nnc(CCc4ccccc4)n3CC2)c1OC -12.3%
Cc1cc(C(C)(C)C)cc(C)c1CC1=NCCN1 1.03% and -7.06% and -20%
CC[C@]1(O)C[C@@H]2CN(CCc3c([nH]c4ccccc34)[C@@](C(=O)OC)(c3cc4c(cc3OC)N(C)C3[C@]45CCN4CC=C[C@](CC)(C45)[C@@H](OC(C)=O)[C@]3(O)C(=O)OC)C2)C1 (some centres undefined) 11.2%
CCN(CCCCOC(=O)c1ccc(OC)c(OC)c1)C(C)Cc1ccc(OC)cc1 (centres undefined) 4.29% and -11.4%
CCC(C)C(=O)OC1CC(C)C=C2C=CC(C)C(CCC3CC(O)CC(=O)O3)C21 (centres undefined) -19.1%
CC(C)(C)CC(C)(C)N=C1Nc2ccc([N+](=O)[O-])cc2N[C@]12C[C@H]1CCCC(=O)N3CC[C@@H](C2)[C@@H]13 -29.7%
COc1cc(C=O)cc(OC)c1[N+](=O)[O-] -39.2%
CCN(CC)CCOCCOC(=O)C1(c2ccccc2)CCCC1 -8.96% [middle of 4 runs]
Cc1ncc2c(c1CNC(=O)c1ccccc1F)CCN(C(=O)c1ccc3c(c1)OCCO3)C2 -2.96%
C[C@@H]1C[C@H]2[C@@H]3CCC4=CC(=O)C=C[C@]4(C)[C@@]3(F)[C@@H](O)C[C@]2(C)[C@H]1C(=O)CO -13%
COc1ccc(Oc2ncc3ncc(=O)n(Cc4cccs4)c3n2)cc1 2.47%
COC(=O)N1CCC2(CCN(C(=O)Nc3cccc(F)c3)CC2)CC1 -14.3%
CC(C)C[C@@H](NC(=O)OCC1c2ccccc2-c2ccccc21)C(=O)O -21.2%
O=c1cc(-c2ccc(O)cc2)oc2cc(OC3OC(CO)C(O)C(O)[C@H]3O[C@@H]3OC[C@@](O)(CO)C3O)cc(O)c12 (some centres undefined) -1.25%
COc1ncc2nc(-c3cccs3)c(=O)n(Cc3cccs3)c2n1 1.52%
CCOC(=O)c1c(C)cc(OC)cc1O -20.1%
C[C@]12CCC3c4ccc(O)cc4CCC3C1CCC2=O (some centres undefined) -8.13%
COc1cccc(Nc2ncc3ncc(=O)n(C)c3n2)c1 -13%
CS(=O)(=O)Nc1cccc(-c2cc(NCc3ccccc3)ncn2)c1 -10.2%
C[C@@H]1[C@H](O)[C@@H](C)/C=C/C=C\C=C\C=C\C=C\C=C\C=C\[C@H](O[C@@H]2O[C@H](C)[C@@H](O)[C@H](N)[C@@H]2O)C[C@@H]2O[C@](O)(C[C@@H](O)C[C@@H](O)[C@H](O)CC[C@@H](O)C[C@@H](O)CC(=O)O[C@H]1C)C[C@H](O)[C@H]2C(=O)O (stereo in doubt) -15.7%
Cc1ncnc2nc[nH]c12 -28.5%
Nc1ccccc1N -21.4%
COc1ccccc1-c1cc(=O)c2cccc(OC)c2o1 2.59%
COCC1CCCN(Cc2ccc3c(c2)CN(C(=O)c2sc(C)nc2C)CCO3)C1 (centres undefined) -4.33%
COc1ccc(CCN(C)C(=O)c2cnn(-c3nccc(-c4ccc(C)o4)n3)c2C)cc1OC -10.3%
O=C([C@@H]1CC=C[C@@H]2CCN(C3CCCCC3)C(=O)[C@@H]21)N1CCOCC1 -3.61%
COCCCOc1cc(C[C@@H](C[C@H](N)[C@@H](O)C[C@H](C(=O)NCC(C)(C)C(N)=O)C(C)C)C(C)C)ccc1OC -8.81%
CN(CC(=O)N1CCOCC1)Cc1c(Cl)cccc1NC(=O)c1ccccc1 -3.61%
CNCCCCOc1ccccc1Cc1ccccc1 -11.2%
C#C[C@]1(OC(C)=O)CC[C@H]2[C@@H]3CCC4=CC(=O)CC[C@@H]4[C@H]3CC[C@@]21C -8.44%
CCCCOC(=O)c1ccc(O)cc1 0.993%
COc1ccccc1CNc1cc(-c2cccc(NS(C)(=O)=O)c2)ncn1 -7.69%
CCCc1nc2c(C)cc(-c3nc4ccccc4n3C)cc2n1Cc1ccc(-c2ccccc2C(=O)O)cc1 -13.9%
CCC(O)c1ccccc1 (centres undefined) -12.4%
COCC(=O)Nc1cc(C(=O)N2CCc3c(Cl)cccc3C2)c2c(c1)nc(-c1ccncc1)n2C 2.57%
O=C(O)Cc1ccc(O)c(O)c1 -5.82% and -2.99%
COc1ccccc1CN1CC[C@@]2(CCCN(C(=O)c3cc(C(F)(F)F)cc(C(F)(F)F)c3)C2)C1 -24.1%
CN(C)CCOc1ccccc1Cc1ccccc1 -23.2%
CN(C)c1ccc(-c2ccc3ncnc(N(C)Cc4ccco4)c3c2)cc1 5.99%
O=C(c1ccncc1)N1CCC2(CCCN(c3cccc(-c4ccccc4)c3)C2)CC1 -1%
COc1ccc(-c2cc(=O)c3c(O)c(OC)c(OC)c(OC)c3o2)cc1OC -14.3%
Cc1[nH]c2ccccc2c1/C=C/c1cnc2ccccc2n1 -17.3%
COC(=O)N1CCC[C@@]2(CCN(C(=O)Nc3ccc(OC)cc3)C2)C1 -14.4%
N=C(N)N1CCc2ccccc2C1 -1.38%
CCn1c(-c2ccccc2F)nc2cc(NC(C)=O)cc(C(=O)N3CCCC3c3nccs3)c21 (centres undefined) -8.5%
CC(NC(=O)c1cccnc1)c1nnc2n1CCN(Cc1ccc(F)cc1F)CC2 (centres undefined) -3.49%
CC(C)c1c(C(=O)N(C)Cc2cccc3ncccc23)cnn1-c1nccc(-c2ccccc2F)n1 3.52%
CC1=CC(=O)c2ccccc2C1=O -29.9%
CC1(C)S[C@@H]2[C@H](NC(=O)COc3ccccc3)C(=O)N2C1C(=O)OCC1CCCCC1 (some centres undefined) -32.4%
CN(C)c1ccc2ccc3cccc4ccc1c2c34 -31.6%
CC(=O)N[C@H]1[C@H]([C@H](O)[C@H](O)CO)OC(C(=O)O)=C[C@@H]1N=C(N)N -8.94%
CCOc1ccc(N=Nc2ccc(N)cc2N)cc1 4.1%
COc1ccccc1CCn1c(=O)c(-c2cccc(F)c2)nc2cncnc21 -7.73%
O=C1CC[C@@]23/C=C/C(=O)NCCCCNCCCNC(=O)/C=C/c4ccc(c2c4)OC3C1 (some centres undefined) 15.3%
CC[N+](CC)(CCNC(=O)C(=O)NCC[N+](CC)(CC)Cc1ccccc1Cl)Cc1ccccc1Cl -4.67% and 0.0845%
O=c1c(CCc2ccccc2)nc2cnc(N3CCOCC3)nc2n1Cc1ccc(F)cc1 -9.78%
CN(C)c1ncc2nc(-c3cccs3)c(=O)n(C)c2n1 12.8%
N=c1ccn2c(n1)OC1C(O)C(CO)OC12 (centres undefined) -16.8% and -9.4%
CCN1CCCC1CNC(=O)c1cnn(-c2nccc(-c3cc4ccccc4o3)n2)c1C (centres undefined) -3.13%
O=C(c1cc(C(F)(F)F)cc(C(F)(F)F)c1)N1CCC2(CC1)CN(Cc1ccccc1)C2 -21.1%
O=C(OCc1ccccc1)c1cccnc1 -14.4%
CC(=O)Oc1cc(C)c(OC(C)=O)c2ccccc12 -9.46%
